This is an account of results in patent publication US20240390418A1 (MINERVA BIOTECHNOLOGIES, published 2024).

Assay in all cases: ELISA, peptide on plate (FIG. 8)
Background: In an ELISA, binding on a coated surface is turned into a signal by an enzyme label.

In experiment [1] the target is T1, PSMGFR peptide.
T1 construct: also called MUC1* peptide
T1 peptide: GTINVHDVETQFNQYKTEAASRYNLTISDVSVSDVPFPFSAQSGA
An excerpt: (§1) The huMNE6 scFv-Fc bound to the PSMGFR peptide and to the PSMGFR N-10 peptide but not to the PSMGFR C-10 peptide. The parent MNE6 antibody and the humanized MNE6 require the C-terminal 10 amino acids of PSMGFR for binding.

Experiment [2] concerns the target T2, N-10 peptide.
T2 construct: also called PSMGFR N-10; PSMGFR minus 10 amino acids from the N-terminus
T2 peptide: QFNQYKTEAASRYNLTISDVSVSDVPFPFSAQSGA
Source text: as §1

Experiment [3] deals with T3, C-10 peptide.
T3 construct: also called PSMGFR C-10; PSMGFR minus 10 amino acids from the C-terminus
T3 peptide: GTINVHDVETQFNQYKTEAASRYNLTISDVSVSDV
Source text: as §1

B1: humanized MNE6 scFv-Fc (Fc fusion)
chain: DAAQPAEVQLVESGGGLVKPGGSLRLSCAASGFTFSRYGMSWVRQAPGKRLEWVSTISGGGTYIYYPDSVKGRFTISRDNAKNTLYLQMNSLRAEDTAVYYCTRDNYGRNYDYGMDYWGQGTLVTVSSGGGGSGGGGSGGGGSEIVLTQSPATLSLSPGERATLTCSATSSVSYIHWYQQRPGQSPRLLIYSTSNLASGIPARFSGSGSGSDYTLTISSLEPEDFAVYYCQQRSSSPFTFGSGTKVEIK[… human IgG1 Fc …]
notes: also called huMNE6 scFv-Fc; hMNE6 scFv-Fc
For the molecule B1, the values for the binding result in experiment [1], in experiment [2] and in experiment [3] were “binds”, “binds” and “no binding”, respectively.
